# Reference: the supplement of paper PMC7826260
# Some of the results follow. Cleavage of a single-stranded DNA pool by Rep nickase domains was read by sequencing (1 h at 37 °C, 3 µM enzyme); the outer parts of the 90-letter strands are left off. A value is the log2 ratio of uncut reads to the pool without enzyme; more negative means more cut, near 0 not cut, and no call is made. Shares of all reads are compared; where an enzyme cuts many sequences, the uncut ones exceed 0.
# System: T1, Rep nickase domain of tomato golden mosaic virus
# T1 sequence (residues 1-124, tag not shown): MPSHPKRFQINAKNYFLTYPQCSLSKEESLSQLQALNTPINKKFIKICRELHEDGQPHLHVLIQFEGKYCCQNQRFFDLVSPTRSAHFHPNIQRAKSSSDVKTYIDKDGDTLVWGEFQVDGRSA
# Test: uncleaved DNA left, log2 of reads against the no-enzyme library (log2 ratio); higher = less cleavage (more negative = more Rep cleavage of the k-mer); sequences stand for … in CTCGTCCG…ACCGGAGA
# Description: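 A pool of 90-nt single-stranded DNAs with seven random bases just before the constant AC of the nick site (name = the seven bases) was cut by 3 µM recombinant His6-SUMO-tagged Rep nickase domain (300 nM DNA, 50 mM HEPES pH 8.0, 50 mM NaCl, 1 mM MnCl2, 1 h, 37 °C, three replicates). Uncut DNA was amplified and sequenced.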
row,Sequence,uncleaved DNA left (log2)
1,TGTCTGT,-0.103
2,CCAGTTC,-0.0377
3,TAGCAGT,-0.0686
4,CTCAAAC,-0.0444
5,ATTCCGC,-0.105
6,TACATCA,-0.000271
7,CGGTTCT,-0.101
8,ACAAGCG,-0.0767
9,AGTGTCT,0.092
10,CCTGTCA,0.0901
11,GAGCTTA,-0.102
12,AGCAGGA,0.0918
13,CCTATAT,0.0592
14,TACCGCG,0.031
15,AATTGCA,0.00518
16,AGATCGT,-0.099
17,TGAATCC,-0.126
18,TGCGTCG,-0.106
19,ATACCGG,0.103
20,ACTTTGG,0.265

row,Sequence,uncleaved DNA left (log2)
1,ATGCAAC,-0.115
2,ACATAGA,0.0696
3,GCGCCGC,-0.133
4,CAGCTAA,0.0185
5,GACCCCG,-0.125
6,TAAGTCC,-0.0723
7,GCCTAAG,-0.15
8,GCCTGTA,0.0915
9,TCGCTTG,0.118
10,CCAACGT,-0.108
11,GAGAAAT,0.106
12,TCGAACT,-0.125
13,GGTAGCA,-0.012
14,TTAGAAT,0.1
15,AGATAGG,0.133
16,AAAATCT,-0.408
17,GGGGCTA,0.155
18,GAGGCGC,-0.0176
19,CTATGCA,-0.0371
20,TCGCGCT,-0.119
